# Results as given in paper PMC4336329 (PLoS ONE, 2015).
# Screen size: about 310,000 compounds; about 14,000 (4.5%) showed an effect of 50% or more. The effect is printed as a negative number. The list shows a part of the results.
# Target: human ether-à-go-go-related gene (hERG) potassium channel (human, UniProt Q12809)
# Assay: primary screen, population patch clamp on CHO cells stably expressing hERG
# 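Note: peak tail current of the secondary pulse compared with the same well before compound.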
# Sequence of human ether-à-go-go-related gene (hERG) potassium channel (Q12809 whole entry, looked up): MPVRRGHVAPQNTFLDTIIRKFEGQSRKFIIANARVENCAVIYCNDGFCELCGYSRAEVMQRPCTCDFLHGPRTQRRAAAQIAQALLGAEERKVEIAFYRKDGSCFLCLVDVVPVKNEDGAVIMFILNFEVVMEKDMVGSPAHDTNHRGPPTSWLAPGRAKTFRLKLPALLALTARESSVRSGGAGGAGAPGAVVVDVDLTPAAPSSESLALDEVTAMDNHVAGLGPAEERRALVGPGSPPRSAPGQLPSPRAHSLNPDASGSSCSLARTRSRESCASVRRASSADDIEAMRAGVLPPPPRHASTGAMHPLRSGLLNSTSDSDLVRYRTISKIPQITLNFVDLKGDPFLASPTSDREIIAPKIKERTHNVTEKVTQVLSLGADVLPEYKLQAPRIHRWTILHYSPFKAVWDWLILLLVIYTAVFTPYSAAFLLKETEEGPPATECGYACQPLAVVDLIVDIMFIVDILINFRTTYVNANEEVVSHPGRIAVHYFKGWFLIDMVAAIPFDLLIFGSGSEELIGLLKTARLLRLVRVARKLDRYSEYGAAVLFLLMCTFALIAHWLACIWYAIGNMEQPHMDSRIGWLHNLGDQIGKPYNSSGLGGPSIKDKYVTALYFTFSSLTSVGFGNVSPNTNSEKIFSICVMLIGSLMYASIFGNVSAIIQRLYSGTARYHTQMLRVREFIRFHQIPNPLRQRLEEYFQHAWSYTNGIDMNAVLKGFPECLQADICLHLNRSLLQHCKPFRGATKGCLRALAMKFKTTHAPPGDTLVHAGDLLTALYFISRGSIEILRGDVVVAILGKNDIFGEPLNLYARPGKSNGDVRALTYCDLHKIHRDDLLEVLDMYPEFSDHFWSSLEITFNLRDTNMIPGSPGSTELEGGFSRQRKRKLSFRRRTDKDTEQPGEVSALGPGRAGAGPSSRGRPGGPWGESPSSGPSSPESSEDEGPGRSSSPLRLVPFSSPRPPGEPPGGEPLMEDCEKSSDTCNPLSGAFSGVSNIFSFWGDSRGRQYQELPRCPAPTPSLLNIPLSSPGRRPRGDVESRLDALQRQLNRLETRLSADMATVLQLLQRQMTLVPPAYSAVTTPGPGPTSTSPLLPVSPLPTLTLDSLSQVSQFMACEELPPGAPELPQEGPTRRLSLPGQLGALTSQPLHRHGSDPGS
row,Structure (SMILES),"hERG current change (%, negative = inhibition) at 10uM"
1,O=C(Nc1ccn(Cc2c(F)c(F)cc(F)c2F)n1)c1cccc(Cn2cc([N+](=O)[O-])cn2)c1,-2.12%
2,Cn1c(=O)c2c(nc(N/N=C/c3c(O)n(-c4ccccc4)c(=S)[nH]c3=O)n2C)n(C)c1=O,8.04%
3,CCCc1cc(=O)n2nc(N3CCC(C(=O)NCc4ccco4)CC3)sc2n1,-44.4%
4,O=C(COC(=O)CCCc1c[nH]c2ccccc12)Nc1ccc2c(c1)OCO2,15.1%
5,COc1ccc(N(C)S(=O)(=O)c2cccc(C(=O)NCC(c3ccco3)N3CCCC3)c2)cc1 (stereo not shown),-33.9%
6,O=C(Nc1nc(-c2ccc(F)c(F)c2)cs1)Nc1ccc(F)cc1F,12.1%
7,CS(=O)(=O)N(CC(=O)N1CCCCCC1)c1ccc(Cl)cc1,2.37%
8,Cc1ccccc1-c1nc(CS(=O)CC(=O)NCCN2CCOCC2)c(C)o1 (stereo not shown),3.48%
9,Cc1ccc(S(=O)(=O)NCc2ccccn2)c(C)c1,-4.7%
10,COc1cccc(CN2CCc3ccc(NC(=O)CCc4ccc(C)cc4)cc3C2)c1O,-52.2%
11,COc1ccc2c(c1)C(=O)C(=O)N2CC1COc2ccccc2O1 (stereo not shown),18.1%
12,N#C/C(=N\Nc1ccc(Cl)cc1)C(=N)N1CCCCC1,-31.1%
13,COC(=O)c1ccc(S(=O)(=O)NCc2cccc(OC)c2)n1C,-8.28%
14,COc1cc(NC(=O)CN(c2ccc(C)cc2)S(=O)(=O)c2c(C)n[nH]c2C)cc(OC)c1,10%
15,Cc1noc(C)c1S(=O)(=O)Nc1ccc(C(=O)O)cc1,5.28%
16,Cc1ccc(NC(=O)OCc2ccccc2S(C)=O)cc1 (stereo not shown),-17.9%
17,Cc1cccc(-c2nsc(SCC(=O)NCc3ccco3)n2)c1,15%
18,O=C(NCCc1ccc(Cl)cc1)c1cc(-c2ccncc2)nc2ccccc12,4.23%
19,O=C(NCCc1ccccc1)c1ccc2[nH]c(=O)c(=O)[nH]c2c1,11%
20,O=C(Nc1ccccc1Br)c1ccc(N2CCCC2=O)cc1,-9.8%
21,CCN1CCN(c2nnc(-c3ccc(C)cc3)c3ccccc23)CC1,-66.5%
22,COc1ccc(/C=C/C(=O)N2CCN(c3ccccc3)CC2)cc1S(=O)(=O)N1CCOCC1,-17%

row,Structure (SMILES),"hERG current change (%, negative = inhibition) at 10uM"
1,CCOC(=O)C(CC)n1cnc2c(nnn2-c2ccc(C)cc2)c1=O (stereo not shown),-41.4%
2,Cc1oc2nc(SCC(=O)NCc3cccnc3)nc(N)c2c1C,-7.71%
3,COC(=O)C1=C(C)n2nnnc2NC1c1ccc(Cl)cc1 (stereo not shown),-19.8%
4,COc1cc(NC(=O)c2ccc3c(SCC(=O)O)c4c(nc3c2)CCC4)cc(OC)c1OC,15.1%
5,COc1ccc(S(=O)(=O)NCC2CC3C=CC2C3)cc1OC (stereo not shown),-7.2%
6,O=C(CSc1ncccn1)Nc1ncc(C(F)(F)F)cc1Cl,47.2%
7,COc1cccc(NC(=O)C(C#N)Cc2ccncc2)c1 (stereo not shown),-18.5%
8,O=c1nc2n(c3cccc(Cl)c13)CCCCC2,1.51%
9,COc1ccc(CCNC2CCCCCC2)cc1,-4.62%
10,CC(=O)c1cccc(NCC(=O)N2CCN(S(=O)(=O)c3ccccc3)CC2)c1,-4.55%
11,Cc1ccc(S(=O)(=O)N2CCCC(C(=O)N3CCN(C)CC3)C2)cc1 (stereo not shown),16.4%
12,O=C(CCCCl)Nc1c2c(nn1-c1ccccc1)CSC2,-0.0485%
13,O=C(NC1CCCCCC1)c1cc2ccccc2oc1=O,-2.97%
14,COCCC(=O)N1CCc2ccc(NC(=O)c3ccc(C(F)(F)F)cc3)cc2C1,-32.9%
15,CC(=O)c1c(C)[nH]c(C(=O)OCC(=O)NCCCc2ccccc2)c1C,0.616%
16,CCCCOCCCNC(=O)c1ccc(NC(C)=O)cc1,-5.31%
17,Cc1ccccc1NC(=O)/C(C#N)=C\c1cc(C)n(-c2ccc(C(=O)O)cc2)c1C,16.5%
18,Cc1ccc(-n2c(SCc3nc4ccccc4c(=O)[nH]3)nnc2-c2ccccc2O)cc1,-6.15%
19,OCCC1CN(CCCc2ccccc2)CCN1Cc1ccc(F)cc1 (stereo not shown),-66.6%
20,COc1ccc(CCNCc2ccccc2F)cc1.O=C(O)C(=O)O,-22.8%
21,Cc1cccc(CN2C(=O)CSc3ccc(C(=O)NC4CC4)cc32)c1,-9.34%
22,CC(C)CN(C(=O)COC(=O)c1ccc2ccccc2c1)c1c(N)n(Cc2ccccc2)c(=O)[nH]c1=O,-18%

row,Structure (SMILES),"hERG current change (%, negative = inhibition) at 10uM"
1,COC(=O)c1cccc(NC(=O)CN2C(=O)c3ccccc3C2=O)c1,-7.83%
2,Cc1cc(C)cc(OC(C)c2ccnc3nc(/N=C/N(C)C)nn23)c1 (stereo not shown),14%
3,CCC1Nc2ccccc2-c2nnc(SC)nc2O1 (stereo not shown),-0.716%
4,Cc1cccc(C)c1NC(=O)CSc1nnc(Cn2nnc(-c3ccccc3)n2)n1-c1ccccc1,-22.3%
5,O=C(N/N=C/c1cccnc1)c1cc2ccccc2o1,6.62%
6,CC(=O)Nc1ccc(C(=O)COC(=O)c2c(C)noc2C)c(F)c1,-3.47%
7,Cn1c(-c2ccc(F)cc2)cnc1NCc1ccccc1F.O=C(O)C(=O)O,-27.3%
8,N#CCN1C(=S)N=C(Nc2cccc(Cl)c2)C12CCCCC2,5.45%
9,OCC1OC(n2cnc3ccccc32)CC1O (stereo not shown),10.8%
10,Cn1nnnc1Sc1ncnc2scc(-c3ccc(F)cc3)c12,-44.6%
11,CCOC(=O)C1CCN(C(=O)C(C)c2ccc([N+](=O)[O-])cc2)CC1 (stereo not shown),-21.4%
12,Cc1cccc(CN2CCN(c3ncccn3)CC2)c1,4.03%
13,C/C(CC(=O)NC12CC3CC(CC(C3)C1)C2)=N\NC(=O)c1ccc(C)cc1,20.1%
14,Cc1ccc(N2CC(C(=O)Nc3ccc(N4CCOCC4)cc3)CC2=O)cc1C (stereo not shown),15.3%
15,O=C(Cn1nc(-c2ccc(Cl)cc2)c2ccccc2c1=O)NN1CCOCC1,0.409%
16,Cc1cc(SCc2ccccc2C)nc(=O)[nH]1,11.4%
17,COc1cc(S(=O)(=O)NCCCN2CCOCC2)ccc1Cl,-0.898%
18,C/C(=C\C(=O)c1ccc(Br)cc1)Nc1ccc(Cl)cc1,-4.9%
19,CC(OC(=O)Cn1cc(C(F)(F)F)ccc1=O)C(=O)NC(C)c1ccc(Cl)cc1Cl (stereo not shown),-15.1%
20,O=C(NC(=S)NNS(=O)(=O)c1ccccc1)c1ccccc1[N+](=O)[O-],19.1%
21,O=C(NCc1cc(Br)cc(Br)c1OC(=O)c1ccccc1[N+](=O)[O-])c1ccccc1,11.3%
22,CCc1nc2ccccc2[nH]c1=O,9.28%

row,Structure (SMILES),"hERG current change (%, negative = inhibition) at 10uM"
1,CCOC(=O)C(C(=O)NCC1CCCO1)C1CCCCC1 (stereo not shown),12%
2,O=C1CCC(C(=O)OC(C(=O)Nc2ccc([N+](=O)[O-])cc2Br)c2ccccc2)=NN1 (stereo not shown),-11.7%
3,COc1ccc(C(=O)N2CCCCCC2)cc1OC1CCN(C(C)=O)CC1,6.36%
4,NC(=O)C1CCCN(CC(O)COCc2ccc(Cl)cc2)C1.O=C(O)C(=O)O (stereo not shown),-8.86%
5,CCN(C(=O)COC(=O)CCn1c(C)csc1=O)c1c(N)n(Cc2ccccc2)c(=O)[nH]c1=O,1.79%
6,CCCCC(=O)Nc1ccc(C(=O)NCC(=O)OC)cc1,-0.352%
7,COc1ccc(C(=O)n2nc(-c3ccco3)nc2SC)cc1OC,3.41%
8,CCCC(=O)Nc1cc(-c2nn(C)c(=O)c3ccccc23)ccc1N1CCOCC1,-33.7%
9,CCC(C(=O)NC1CCCC1)N(Cc1cccs1)C(=O)Cn1nnc(-c2ccc(OC)c(OC)c2)n1 (stereo not shown),-22.3%
10,Cc1ccc(Cl)cc1N1CCN(C(=O)CN2C(=O)c3cccc4cccc2c34)CC1,0.0238%
11,CN(Cc1ccccc1)S(=O)(=O)c1ccc(NS(C)(=O)=O)cc1,-55.5%
12,CCCc1cc(=O)oc2cc(OCC(=O)NCCCN3CCOCC3)c(Cl)cc12,-73%
13,CCOc1ccccc1N(CC(=O)O)S(=O)(=O)c1ccc(C)cc1,12.6%
14,Cc1ccc2nc(N3CCN(Cc4nnnn4C4CCCC4)CC3)c(C#N)cc2c1,-4.91%
15,COc1ccc(C(=O)N/N=C/C2CC=CCC2)cc1OC (stereo not shown),2.01%
16,Clc1ccc(OCc2nnc3n2CCCCC3)c(Cl)c1,-36.4%
17,CCOC(=O)NC(=O)COC(=O)CNC(=O)c1cccc(OC)c1,9.79%
18,COC(=O)C(C(=O)OC)C(C[N+](=O)[O-])c1ccc(O)c(OC)c1 (stereo not shown),3.51%
19,Cc1ccc(SCc2ccc(C(=O)Nc3cccc([N+](=O)[O-])c3)cc2)cc1,6.1%
20,CN1C(=O)Cc2cc(S(=O)(=O)N3CCN(c4cccc(Cl)c4)CC3)ccc21,15.3%
21,O=C(CNC(=O)c1cccs1)NCCN1CCN(c2ccccc2F)CC1,-35.3%
22,Cc1csc(NC(=O)CCNS(=O)(=O)c2ccc3c(c2)c(=O)n(C)c(=O)n3C)n1,20.8%
